Measured values taken from PubChem BioAssay AID886 (National Center for Advancing Translational Sciences (NCATS), 2007).
Hit rate of the full screen: of about 73,000 compounds, about 2,500 (3.4%) were called active. Inconclusive means that the source gave no clear call. Such entries were picked first, then a sample of the others. The call rests on the fitted dose curve; in most records, active means well fitted inhibition curve with a large enough effect; inconclusive means small, poorly fitted or top-dose-only effect; inactive means no such curve, though single readings can be large or run the other way. A potency beside an inconclusive call is a rough fit, not a confirmed value.

What follows are compounds tested against 3-hydroxyacyl-CoA dehydrogenase type-2 (Homo sapiens) (UniProt Q99714) (assay: qHTS Assay for Inhibitors of HADH2 (Hydroxyacyl-Coenzyme A Dehydrogenase, Type II)). Conditions: recombinant HADH2, NADH fluorescence, beta-hydroxybutyryl-CoA; activity change, negative = inhibition: at 57.1 µM (top of the series).
How it was run: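 E. coli-expressed His-tagged HADH2 tested at 20 nM in alkaline Tris buffer (pH 9.0); oxidation of 90 uM beta-hydroxybutyryl-CoA with 1 mM NAD+ tracked fluorimetrically for 4 min.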
Further: nearly all actives have a fitted effect of over 60% in size.
On the % scale 0 is the no-effect control and ±100 the full control effect; potency means the concentration at half of the fitted maximal effect; tags describe the fitted curve by direction and shape.

UniProt Q99714, sequence (Q99714 whole entry, looked up): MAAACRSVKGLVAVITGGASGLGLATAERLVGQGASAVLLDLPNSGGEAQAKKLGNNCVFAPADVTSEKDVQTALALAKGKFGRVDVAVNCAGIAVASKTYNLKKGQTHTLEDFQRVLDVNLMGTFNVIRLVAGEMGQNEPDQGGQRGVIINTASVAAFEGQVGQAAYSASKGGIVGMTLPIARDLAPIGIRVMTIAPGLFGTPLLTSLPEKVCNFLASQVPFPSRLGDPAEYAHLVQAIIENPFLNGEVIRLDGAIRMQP
UniProt Q99714, sequence (Q99714 whole entry, looked up): as above

Row | Compound | activity change, negative = inhibition | Potency
1 | Cc1cccc(NS(=O)(=O)c2ccc(C)c(C(=O)OCC(=O)Nc3cc(C)on3)c2)c1 | inactive: 2.93% | 
2 | COc1ccc(OC)c2[nH]c(=O)c(CCNS(=O)(=O)c3ccc(C)cc3)cc12 | inactive: 0.824% | 
3 | COc1cc(C2CC(=O)N3CN(c4ccccc4C)CSC3=C2C#N)cc(OC)c1OC (stereo not given) |  | inconclusive: 0.794 µM [inhibitor, full curve]
4 | CCCCCNC(=O)C(C)NS(=O)(=O)c1ccc(OC)cc1 (stereo not given) |  | inconclusive: 31.6 µM [inhibitor, single point]
5 | Brc1ccc(-c2nn3c(-c4ccco4)nnc3s2)o1 |  | inconclusive: 31.6 µM [inhibitor, single point]
6 | CC(C)Cn1cc(C(=O)N2CCN(c3ccccn3)CC2)c2c3ccccc3n(C)c2c1=O |  | inconclusive: 39.8 µM [inhibitor, single point]
7 | Nc1c(C(=O)NC2CCCC2)c2nc3ccccc3nc2n1N |  | inconclusive: 39.8 µM [inhibitor, single point]
8 | CCOC(=O)C1=C(N)n2c(s/c(=C\c3cccnc3)c2=O)=C(C(=O)OCC)C1c1cccnc1 (stereo not given) | inactive: 2.05% | 
9 | CCNc1ncc2nc(C)c(=O)n(C3CC3)c2n1 |  | inconclusive: 3.98 µM [inhibitor, single point]
10 | CCC(=O)N1CCc2cc(Br)cc(S(=O)(=O)CCC(=O)NCC3CCCO3)c21 (stereo not given) | inactive: 3.3% | 
11 | C=CCOC(=O)C1=C(C)NC(SC)=C(C#N)C1c1ccc(OCC)cc1 (stereo not given) |  | inconclusive: 3.16 µM [inhibitor, single point]
12 | Cc1ccc(-n2c(N)c(C(=O)N3CCOCC3)sc2=S)cc1 |  | active: 1.58 µM
13 | Cn1c(N2CCOCC2)nc(-c2ccccc2)c1-c1ccccc1 |  | active: 25.1 µM
14 | CCCn1c(=NC(=O)c2ccco2)c(C(=O)OCC)cc2c(=O)n3ccccc3nc21 |  | active: 25.1 µM
15 | CCSc1ccccc1C(=O)Nc1cccnc1 |  | inconclusive: 31.6 µM [inhibitor, single point]
16 | O=C(CCC(=O)N1CCc2ccccc21)Nc1ccccc1 |  | inconclusive: 0.0398 µM [inhibitor, full curve, poor fit]
17 | Cc1cccc(C(=O)O)c1C[C@H]1NCC[C@H]2c3ccccc3N[C@@H]12 |  | inconclusive: 7.94 µM [inhibitor, single point]
18 | COC(=O)C1(C)Nc2ccccc2C(=O)N1c1ccccc1C (stereo not given) |  | inconclusive: 39.8 µM [inhibitor, single point]
19 | O=C(CCCc1nc2ccccc2s1)Nc1nccs1 |  | inconclusive: 31.6 µM [inhibitor, partial curve, poor fit]
20 | CCCCC(=O)Nc1nn(C)c2nc3c(C)cccc3cc12 | inactive: 17.8% | 
